Reference: patent US20100069815A1 (ASAHI KASEI, published 2010)

Biological target: T1, CD4 on CD4 positive cells in human peripheral blood (human, UniProt P01730)
T1 construct: whole, on cells; also called CD4 molecules
Test: cell adsorption from human whole blood on covalently immobilized binder (GMA grafted nonwoven fabric column); flow cytometry; mean ± SD of 3
Description: Immediately before the initiation of experiment, the PBS(−) solution was drained off by flowing air through the column. 5.0 ml of healthy human fresh blood containing ACD-A ([…] Laboratories) (blood:ACD-A=6.7:1) was fed from the inlet of the cell adsorber at a flow rate of 1.0 ml/min with a syringe pump. After discarding the first five drops, the treated blood was collected from the outlet of the column.
The CD4 positive cell removal rate at that time was calculated based on the change in the number of leukocytes measured by Coulter counter, and the change in the proportion of CD4 positive cells in the recovered cells measured by flow cytometry with use of a flow cytometer (FACS Calibur: Becton, Dickinson and Company). The cells were stained by the following manner. 100 μl of the collected blood was added with 10 μl of anti-CD4-PE solution (clone SK3, Becton, Dickinson and Company), 10 μl of anti-CD8-FITC solution (clone RPA-T8, Becton, Dickinson and Company), and 10 μl of anti-CD45-PerCP solution (Becton, Dickinson and Company). The resultant mixture was allowed to be stained at room temperature for 30 minutes, and then was added with 1 ml of FACS Lysing solution (Becton, Dickinson and Company) to effect hemolysis. CD45 positive cells were gated as leukocytes, and the proportion of CD4 positive cells therein was assayed.

Row | Binder | CD4 positive cell removal rate (%)
1 | Leu3a scFv-SA-guanidine (scFv, also called Leu3a scFv-SA protein) scFv: MADIVLTQSPASLAVSLGQRATISCKASQSVDYDGDSYMNWYQQKPGQPPKLLIYAASNLESGIPARFTGSGSGTDFTLNIHPVEEEDTATYYCQQSYEDPPTFAGGTNLEIKGGGGSGGGGSGGGGSMVHLQESEPELVKPGASVKMSCKASGYTFTDYVINWVKQRTGQGLEWIGETYTGSGSSYYNEKFKDKATLTVDKASNIAYMQLSSLTSEDSAVYFCARRGKGTGFAFWGQGTLVTVSAAAADYKDDDDKGSS[about 120 residues not listed]GSTHHHHHH | 91.4
2 | Leu3a scFv-SA-Urea (scFv, Covalently immobilized on GMA grafted nonwoven fabric in the assay) scFv: MADIVLTQSPASLAVSLGQRATISCKASQSVDYDGDSYMNWYQQKPGQPPKLLIYAASNLESGIPARFTGSGSGTDFTLNIHPVEEEDTATYYCQQSYEDPPTFAGGTNLEIKGGGGSGGGGSGGGGSMVHLQESEPELVKPGASVKMSCKASGYTFTDYVINWVKQRTGQGLEWIGETYTGSGSSYYNEKFKDKATLTVDKASNIAYMQLSSLTSEDSAVYFCARRGKGTGFAFWGQGTLVTVSAAAADYKDDDDKGSS[about 120 residues not listed]GSTHHHHHH | 62.8
